We go through four molecules from paper PMC10855866, “Structural Analysis of Breast-Milk αS1-Casein: An α-Helical Conformation Is Required for TLR4-Stimulation” (International Journal of Molecular Sciences, 2024).

By UniProt entry, the sequences of proteins in these tests, tags left out. Residues count along the entry.
UniProt O00206, residues 24-839: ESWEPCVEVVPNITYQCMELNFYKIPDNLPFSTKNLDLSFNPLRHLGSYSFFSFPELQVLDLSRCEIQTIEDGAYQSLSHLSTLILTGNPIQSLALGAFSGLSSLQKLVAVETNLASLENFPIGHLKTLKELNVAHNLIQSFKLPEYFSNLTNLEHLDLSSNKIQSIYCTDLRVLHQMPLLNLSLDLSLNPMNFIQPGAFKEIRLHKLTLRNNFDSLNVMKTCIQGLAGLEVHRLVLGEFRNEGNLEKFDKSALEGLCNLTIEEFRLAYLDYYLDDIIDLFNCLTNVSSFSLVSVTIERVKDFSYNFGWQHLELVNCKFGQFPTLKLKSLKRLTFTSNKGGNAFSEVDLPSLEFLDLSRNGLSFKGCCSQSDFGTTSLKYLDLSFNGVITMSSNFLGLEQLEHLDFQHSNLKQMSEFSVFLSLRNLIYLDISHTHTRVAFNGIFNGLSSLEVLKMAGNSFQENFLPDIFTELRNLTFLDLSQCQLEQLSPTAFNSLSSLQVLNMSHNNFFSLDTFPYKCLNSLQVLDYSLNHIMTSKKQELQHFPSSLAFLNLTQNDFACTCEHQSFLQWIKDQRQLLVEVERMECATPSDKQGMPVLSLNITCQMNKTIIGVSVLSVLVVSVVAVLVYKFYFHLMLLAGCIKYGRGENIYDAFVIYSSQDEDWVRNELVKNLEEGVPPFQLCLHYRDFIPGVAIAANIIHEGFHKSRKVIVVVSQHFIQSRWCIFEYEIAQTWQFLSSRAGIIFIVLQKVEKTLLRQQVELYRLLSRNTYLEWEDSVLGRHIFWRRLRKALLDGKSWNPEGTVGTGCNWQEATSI

The target in experiment [1] is recombinant human αS1-casein (human) (UniProt P47710). The experiment in a line: SDS-PAGE under weak and strong denaturing conditions; αS1-casein 50 µM in 0.2% SDS (20 min, RT), 2% SDS (20 min, RT) or 2% SDS with 0 to 100 mM DTT (20 min, 95 °C); 15% gel, silver stain; both purified.
The target in experiment [2] is Toll-like receptor 4 (TLR4) (UniProt O00206). The experiment in a line: flow cytometry on cells; TLR4+ cells (HEK293 transfected with TLR4/MD2/CD14) and TLR4- cells incubated 24 h with 500 nM αS1-casein or a truncated variant; detected with murine anti-His6 IgG and Dylight633 anti-murine IgG; only the binder purified. In general terms: A flow cytometer gives signals particle by particle.

These are yes or no findings as the source states them, for the method shown. Some results given as binding are weak or reduced against the parent protein; the word gives no strength.

B1: recombinant human αS1-casein (natural protein, UniProt P47710 16-185, looked up)
chain: RPKLPLRYPERLQNPSESSEPIPLESREEYMNGMNRQRNILREKQTDEIKDTRNESTQNCVVAEPEKMESSISSSSEEMSLSKCAEQFCRLNEYNQLQLQAAHAQEQIRRMNENSHVQVPFQQLNQLAAYPYAVWYYPQIMQYVPFPPFSDISNPTAHENYEKNNVMLQW
notes: human αS1-casein (CSN1S1), from plasmid pET TS001; C1 and C2, made from the same plasmid, begin at residue 16 and N1-N4 end at 185, so it probably lacks the signal peptide (1-15); Not phosphorylated (made in E. coli); also called full-length αS1-casein; full-size αS1-casein; source: E. coli, purified (NTA column chromatography); not shown: His6, N-terminal, kept
As for B1, the binding result in experiment [1] was “no binding (condition: 2% SDS, 100 mM DTT, 20 min, 95 °C)”; in experiment [2], “binds”.

B2: αS1-casein truncated variant N1 (domain or fragment, human, UniProt P47710 35-185, looked up)
chain: EPIPLESREEYMNGMNRQRNILREKQTDEIKDTRNESTQNCVVAEPEKMESSISSSSEEMSLSKCAEQFCRLNEYNQLQLQAAHAQEQIRRMNENSHVQVPFQQLNQLAAYPYAVWYYPQIMQYVPFPPFSDISNPTAHENYEKNNVMLQW
With B2, the binding entry in experiment [2] is on record as “binds”.

B3: αS1-casein truncated variant N2 (domain or fragment, human, UniProt P47710 57-185, looked up)
chain: REKQTDEIKDTRNESTQNCVVAEPEKMESSISSSSEEMSLSKCAEQFCRLNEYNQLQLQAAHAQEQIRRMNENSHVQVPFQQLNQLAAYPYAVWYYPQIMQYVPFPPFSDISNPTAHENYEKNNVMLQW
On to B3, for which the binding result in experiment [2] is reported as “binds”.

B4: αS1-casein truncated variant N4 (domain or fragment, human, UniProt P47710 93-185, looked up)
chain: EMSLSKCAEQFCRLNEYNQLQLQAAHAQEQIRRMNENSHVQVPFQQLNQLAAYPYAVWYYPQIMQYVPFPPFSDISNPTAHENYEKNNVMLQW
In the case of B4, in experiment [2], the binding result is reported as “no binding (tested: 500 nM)”.
